In all, about 220,000 compounds went through this assay and about 2,300 (1%) were called active. Inconclusive means that the source gave no clear call. Such entries were picked first, then a sample of the others. Calls follow the shape of the dose curve; as a rule, active = well fitted inhibition curve with a large enough effect; inconclusive = small, poorly fitted or top-dose-only effect, or effect the other way; inactive = no such curve, though single readings can be large or run the other way. No potency is given beside an inconclusive call; the fits are too rough.
Molecular target: Neuropeptide S receptor (Homo sapiens) (UniProt Q6W5P4)
Chain of UniProt Q6W5P4 (Q6W5P4 whole entry, looked up): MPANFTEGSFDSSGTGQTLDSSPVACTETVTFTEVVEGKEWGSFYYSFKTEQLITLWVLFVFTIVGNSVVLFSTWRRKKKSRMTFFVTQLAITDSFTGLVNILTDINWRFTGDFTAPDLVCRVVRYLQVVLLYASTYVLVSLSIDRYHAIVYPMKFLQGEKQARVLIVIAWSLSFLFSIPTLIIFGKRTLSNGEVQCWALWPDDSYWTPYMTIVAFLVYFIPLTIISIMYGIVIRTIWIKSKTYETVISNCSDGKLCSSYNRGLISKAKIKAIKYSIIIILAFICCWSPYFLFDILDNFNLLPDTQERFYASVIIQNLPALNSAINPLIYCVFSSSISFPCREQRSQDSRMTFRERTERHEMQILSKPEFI
Assay: qHTS Assay for Antagonists of the Neuropeptide S Receptor: cAMP Signal Transduction; also: nearly all actives have a fitted effect of over 50% in size
Conditions: CHO-NPSR cells, cAMP TR-FRET, antagonist mode; activity change, negative = inhibition: at 38.3 µM (top of the series) unless noted
% is scaled to controls: 0 for no effect and ±100 for the full control effect; potency is read from the fitted curve at half-maximal effect; tags tell the direction and shape of the fitted curve.

| Structure (SMILES) | Potency | activity change, negative = inhibition |
| --- | --- | --- |
| O=C(Nc1ccc(Br)cc1)c1cccn1-c1ncc(C(F)(F)F)cc1Cl | inconclusive [inhibitor, single point] | – |
| COC(=O)C1C(=O)N2CCCSC2=C(C#N)C1c1cccs1 (stereo unspecified) | inactive | – |
| N#C/C(C(=O)NCc1ccccc1)=C1/N=C(NC(=O)c2cccs2)c2ccccc21 | inconclusive [activator, full curve] | – |
| Cc1[nH]c(C)c(C(=O)O)c1CNC1CCCCC1C (stereo unspecified) | inconclusive [inhibitor, partial curve] | – |
| CC(=O)Nc1sc2c(c1C(c1cccs1)N1CCOCC1)CCCC2 (stereo unspecified) | inconclusive [inhibitor, single point] | – |
| COC(=O)/C=C\C(=O)Nc1cccc([N+](=O)[O-])c1 | inconclusive [inhibitor, single point] | – |
| CCN(CC)Cc1cc(C(C)=O)ccc1OCC(C)C | inactive | – |
| Cc1c(C(=O)NCc2cccs2)oc2ccccc12 | inactive | – |
| Cc1cc(C)n(-c2nc3c(c(=O)[nH]c(=O)n3C)n2Cc2cccc(Br)c2)n1 | inactive | – |
| CC1(C)Cc2c(sc3c2c2ncnn2c2nnc(SCC(=O)NCc4ccco4)n32)CO1 | inconclusive [activator, partial curve] | – |
| S=c1[nH]nc(COc2ccccc2)n1/N=C/C=C/c1ccco1 | inconclusive [inhibitor, single point] | – |
| CCC(SC1=N/C(=C/c2ccccc2OC)C(=O)N1c1ccccc1)C(=O)Nc1cc(C)on1 (stereo unspecified) | inconclusive [inhibitor, single point] | – |
| COc1ccc(-c2nc3cnccn3c2Nc2ccc(C)cc2)cc1 | inconclusive [inhibitor, partial curve] | – |
| Cc1c(OCc2nn[nH]n2)ccc2c(-c3ccccc3)cc(=O)oc12 | inconclusive [inhibitor, full curve, poor fit] | – |
| CN(CC(=O)Nc1cccc(S(=O)(=O)NC2=NCCCCC2)c1)Cc1ccc(C(C)(C)C)cc1 | inconclusive [inhibitor, single point] | – |
| CCCCOC(=O)/C=C\C(=O)OCCCC | inactive | – |
| N#C/C(=C\c1ccc(O)cc1)c1nc2ccccc2o1 | inactive | – |
| N#Cc1cccc(C#N)c1Oc1ccc(S(=O)(=O)Nc2ccc(Cl)cc2)cc1 | inconclusive [activator, single point] | – |
| CC(=O)NCCn1c(SCc2ccc(C)cc2C)nc2ccccc2c1=O | inconclusive [inhibitor, single point] | – |
| CC(OC(=O)C1CC1)C(=O)Nc1ccc([N+](=O)[O-])cc1Cl (stereo unspecified) | inactive | – |
| C=CCn1c(C)cc(C(=O)COC(=O)c2ccc3c(c2)NC(=O)CS3)c1C | inactive | – |
| CCc1ccc2[nH]c(=O)c(CN(CCN(CC)CC)C(=S)NCc3ccco3)cc2c1 | inconclusive [activator, partial curve] | – |
| O=C(NCc1ccccc1)C1CCN(C(=O)NCc2ccccc2)CC1 | inconclusive [inhibitor, single point] | – |
| O=S(Cc1ccc(Br)cc1)Cc1nnc(SCc2c(Cl)cccc2Cl)n1-c1ccccc1 (stereo unspecified) | active: 10 µM | – |

| Structure (SMILES) | Potency | activity change, negative = inhibition |
| --- | --- | --- |
| CC1=C(Sc2nc3ccccc3[nH]2)C(=O)NC(C)(C)C1 | inactive | – |
| O=C(COC(=O)C1(c2ccccc2)CC1)N1CCN(c2ccc(F)cc2)CC1 | inconclusive [inhibitor, single point] | – |
| CC(C)COCC(CN(Cc1ccccc1)c1ccccc1)N1CCCC1 (stereo unspecified) | inconclusive [inhibitor, single point] | – |
| Cc1ccc(/C=c2\sc3nc(-c4ccccc4Br)nn3c2=O)o1 | inconclusive [inhibitor, single point] | – |
| Cc1ccc(-c2nnn(CC(=O)N(Cc3cccs3)C(C(=O)NC3CCCC3)c3ccncc3)n2)cc1 (stereo unspecified) | inconclusive [inhibitor, single point] | – |
| Clc1ccc(-c2nnc(NCc3ccccc3)c3ccccc23)cc1 | inconclusive [inhibitor, single point] | – |
| COc1ccc(-n2c(/C=C(\C)O)nc(=O)c3c(C)cc(C)nc32)cc1 | inconclusive [inhibitor, partial curve, poor fit] | – |
| CC(C)(C)OC(=O)[C@H](Cc1ccccc1)NC(=O)c1[nH]cnc1C(=O)Nc1cccc(Cl)c1 | inconclusive [inhibitor, single point] | – |
| CCN1CSC(=S)N(Cc2ccc(OC)cc2)C1 | inconclusive [activator, full curve] | – |
| CN1C(=O)C2(Oc3ccccc3C3CC(c4ccccc4)=NN32)c2ccccc21 (stereo unspecified) | inconclusive [inhibitor, single point] | – |
| COc1ccc2c(c1OC)C(=O)N1c3ccccc3SC21 (stereo unspecified) | inactive | – |
| COC(=O)c1ccc(Cl)c(NC(=O)NC23CC4CC(CC(C4)C2)C3)c1 | inconclusive [inhibitor, partial curve] | – |
| CCOC(=O)c1ccccc1NC(=O)CSc1nnc(Cc2cccn2C)n1-c1ccc(F)cc1 | inconclusive [inhibitor, partial curve] | – |
| Cc1ccccc1S(=O)(=O)Nc1nc2ccccc2nc1Cl | inactive | – |
| O=C(/C=C/Sc1ccccc1)c1ccc(Cl)cc1 | inconclusive [inhibitor, single point] | – |
| CCC(CC)C(=O)N1N=C(c2ccc(NS(C)(=O)=O)cc2)CC1c1ccccc1 (stereo unspecified) | inconclusive [inhibitor, single point] | – |
| C=CCn1c(O)c(/C=C2\C=NN=C2c2ccccc2)sc1=S | inconclusive [activator, single point] | – |
| O=C(Nc1ccccc1)C1=C[C@H](c2ccc3c(c2)OCO3)C[C@H](OCCCCO)O1 | inconclusive [activator, partial curve] | – |
| O=S(=O)(Nc1nc2ccccc2nc1N1CCc2ccccc2C1)c1ccc(Cl)cc1 | inactive | – |
| NC(=O)c1ccc(NC(=O)c2cccc3c2OCCCO3)cc1 | inactive | – |
| CNC(=S)Nc1cccc(Cl)c1C | inactive | – |
| COc1ccc(Nc2cc(C)c3c(O)cccc3n2)cc1 | inactive | – |
| O=C(NC1CCCCCCC1)C1c2ccccc2C(=O)N1Cc1cccs1 (stereo unspecified) | inconclusive [inhibitor, partial curve, poor fit] | – |
| COc1ccc2[nH]c(CN3CCC(CO)(CCOc4ccccc4)CC3)c(C)c2c1 | inconclusive [activator, single point] | – |

| Structure (SMILES) | Potency | activity change, negative = inhibition |
| --- | --- | --- |
| CCCC(=O)OCCNc1cc(Sc2nccn2C)c2nonc2c1[N+](=O)[O-] | active: 10 µM | – |
| CC(C)(C)c1ccc2c(c1)OC(C(=O)N/N=C/c1ccc([N+](=O)[O-])o1)CO2 (stereo unspecified) | – | inactive: 3.31% [at 7.67 µM] |
| CC(=O)c1c(OC(=O)c2ccc(C)cc2)c2ccccc2n1C | inconclusive [inhibitor, partial curve, poor fit] | – |
| CSCC[C@H](NC(=O)Nc1cccc(Br)c1)C(=O)O | inconclusive [activator, single point] | – |
| COc1cccc(-c2nnc3sc(-c4ccccn4)nn23)c1 | inconclusive [inhibitor, partial curve, poor fit] | – |
| CCOC(=O)c1c(NC(=O)c2noc3c2CCCC3)sc(C)c1C | inactive | – |
| Cc1ccc(-n2nnnc2C(=Cc2ccc(N(C)C)cc2)c2nnnn2-c2ccc(C)cc2)cc1 | inconclusive [inhibitor, single point] | – |
| COc1ccc(N2C(=O)c3ccccc3NC2c2ccc(OC)c(CSc3ccccn3)c2)cc1 (stereo unspecified) | active: 12.6 µM | – |
| Cc1ccc2nc(N/N=C/c3ccccc3C#N)nc(-c3ccccc3)c2c1 | inconclusive [inhibitor, single point] | – |
| CSCCC(NS(=O)(=O)c1ccc(Cl)cc1)C(=O)OCc1c(Cl)cccc1Cl (stereo unspecified) | inconclusive [inhibitor, single point] | – |
| Nc1c(C(=O)c2ccc(Br)s2)oc2ccccc12 | inactive | – |
| CC(C)c1ccc(S(=O)(=O)/N=C2/C=C(Sc3ncn[nH]3)C(=O)c3ccccc32)cc1 | active: 10 µM | – |
| O=C(OCc1nc2ccccc2s1)C1CCN(S(=O)(=O)c2cccs2)CC1 | inactive | – |
| O=C(CCSc1ccc(Cl)cc1)NC12CC3CC(CC(C3)C1)C2 | inconclusive [inhibitor, single point] | – |
| CC1(C)CC(=O)C2=C(C1)OC(N)=C(C#N)C2C1CC=CCC1 (stereo unspecified) | inactive | – |
| CSc1nc2ccccc2n1CC(=O)Nc1cc(C(F)(F)F)ccc1N1CCOCC1 | inconclusive [inhibitor, partial curve, poor fit] | – |
| Cc1cc(/C=N/n2cnnc2)c(C)n1-c1ccc(OCc2ccc(Cl)cc2)cc1 | active: 10 µM | – |
| CCOC(=O)COc1ccc2c(C#N)c3ccccn3c2c1 | inactive | – |
| Cc1nn(C)cc1/C=N/NC(=S)Nc1ccccc1 | active: 2 µM | – |
| COc1ccc(-n2c(C)cc(-c3csc(NC(=O)c4ccc(S(=O)(=O)N(C)C)cc4)n3)c2C)cc1 | inconclusive [inhibitor, single point] | – |
| COC1CCCCC1NS(=O)(=O)c1ccccc1 (stereo unspecified) | inconclusive [inhibitor, single point] | – |
| COCCNC(=S)N1CCN(c2cccc(C(F)(F)F)c2)CC1 | inconclusive [inhibitor, single point] | – |
| CCOP(=O)(OCC)c1nc(/C=C/c2ccccc2)oc1NCc1ccc(OC)cc1 | inconclusive [inhibitor, single point] | – |
